This is an account of results in paper PMC9911399, “Two distinct binding modes provide the RNA-binding protein RbFox with extraordinary sequence specificity”.

Numbering of substitutions follows the chain as printed; changes in the protein carry UniProt numbers. The list shows a part of the results.

T1: RBFOX1 RRM (Homo sapiens, UniProt Q9NWB1 109-208)
T1 sequence: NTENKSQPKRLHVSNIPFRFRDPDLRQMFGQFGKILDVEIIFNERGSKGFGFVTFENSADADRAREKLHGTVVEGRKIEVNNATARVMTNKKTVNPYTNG

B1: CGAAUUC (DNA:RNA)
RNA: GGGAGACCGGAAUUCAGAUUGUCCCGAAUUCUUAAAUCCCGUCGUAGCCACCA
DNA 1: CAATCTGAATTCCGGTCTCCC
DNA 2: TGGTGGCTACGACGGGATT
B2: UCUUGUA (DNA:RNA)
RNA: B1 RNA with C25U, G26C, A27U, A28U, U29G, C31A
DNA 1: CAATCTGAATTCCGGTCTCCC
DNA 2: TGGTGGCTACGACGGGATT
B3: GCGCCGG (DNA:RNA)
RNA: GGGAGACCGGAAUUCAGAUUGUCCGCGCCGGUUAAAUCCCGUCGUAGCCACCA
DNA 1: CAATCTGAATTCCGGTCTCCC
DNA 2: TGGTGGCTACGACGGGATT
B4: UGUCCGC (DNA:RNA)
RNA: B3 RNA with G25U, C26G, G27U, G31C
DNA 1: CAATCTGAATTCCGGTCTCCC
DNA 2: TGGTGGCTACGACGGGATT
B5: CUCACCC (DNA:RNA)
RNA: B1 RNA with G26U, A27C, U29C, U30C
DNA 1: CAATCTGAATTCCGGTCTCCC
DNA 2: TGGTGGCTACGACGGGATT
B6: UUAGUUC (DNA:RNA)
RNA: B1 RNA with C25U, G26U, A28G
DNA 1: CAATCTGAATTCCGGTCTCCC
DNA 2: TGGTGGCTACGACGGGATT
B7: GCGGUUA (DNA:RNA)
RNA: B3 RNA with C28G, C29U, G30U, G31A
DNA 1: CAATCTGAATTCCGGTCTCCC
DNA 2: TGGTGGCTACGACGGGATT
B8: UGACUCA (DNA:RNA)
RNA: B1 RNA with C25U, A28C, U30C, C31A
DNA 1: CAATCTGAATTCCGGTCTCCC
DNA 2: TGGTGGCTACGACGGGATT
B9: GCCGGGA (DNA:RNA)
RNA: B3 RNA with G27C, C28G, C29G, G31A
DNA 1: CAATCTGAATTCCGGTCTCCC
DNA 2: TGGTGGCTACGACGGGATT
B10: UUUAUGC (DNA:RNA)
RNA: B1 RNA with C25U, G26U, A27U, U30G
DNA 1: CAATCTGAATTCCGGTCTCCC
DNA 2: TGGTGGCTACGACGGGATT
B11: AAAACCU (DNA:RNA)
RNA: B1 RNA with C25A, G26A, U29C, U30C, C31U
DNA 1: CAATCTGAATTCCGGTCTCCC
DNA 2: TGGTGGCTACGACGGGATT
B12: AAUUCCU (DNA:RNA)
RNA: B3 RNA with G25A, C26A, G27U, C28U, G30C, G31U
DNA 1: CAATCTGAATTCCGGTCTCCC
DNA 2: TGGTGGCTACGACGGGATT
B13: UCUCUUG (DNA:RNA)
RNA: B3 RNA with G25U, G27U, C29U, G30U
DNA 1: CAATCTGAATTCCGGTCTCCC
DNA 2: TGGTGGCTACGACGGGATT
B14: CCGAUCC (DNA:RNA)
RNA: B1 RNA with G26C, A27G, U30C
DNA 1: CAATCTGAATTCCGGTCTCCC
DNA 2: TGGTGGCTACGACGGGATT
B15: UCCAAUG (DNA:RNA)
RNA: B1 RNA with C25U, G26C, A27C, U29A, C31G
DNA 1: CAATCTGAATTCCGGTCTCCC
DNA 2: TGGTGGCTACGACGGGATT
B16: GUGGGCA (DNA:RNA)
RNA: B3 RNA with C26U, C28G, C29G, G30C, G31A
DNA 1: CAATCTGAATTCCGGTCTCCC
DNA 2: TGGTGGCTACGACGGGATT
B17: UUAUCUG (DNA:RNA)
RNA: B1 RNA with C25U, G26U, A28U, U29C, C31G
DNA 1: CAATCTGAATTCCGGTCTCCC
DNA 2: TGGTGGCTACGACGGGATT
B18: AUAAGCC (DNA:RNA)
RNA: B1 RNA with C25A, G26U, U29G, U30C
DNA 1: CAATCTGAATTCCGGTCTCCC
DNA 2: TGGTGGCTACGACGGGATT
B19: UAGUGCG (DNA:RNA)
RNA: B3 RNA with G25U, C26A, C28U, C29G, G30C
DNA 1: CAATCTGAATTCCGGTCTCCC
DNA 2: TGGTGGCTACGACGGGATT
B20: UGGAGAC (DNA:RNA)
RNA: B1 RNA with C25U, A27G, U29G, U30A
DNA 1: CAATCTGAATTCCGGTCTCCC
DNA 2: TGGTGGCTACGACGGGATT
B21: UAGUCUU (DNA:RNA)
RNA: B3 RNA with G25U, C26A, C28U, G30U, G31U
DNA 1: CAATCTGAATTCCGGTCTCCC
DNA 2: TGGTGGCTACGACGGGATT
B22: GACAUUU (DNA:RNA)
RNA: B1 RNA with C25G, G26A, A27C, C31U
DNA 1: CAATCTGAATTCCGGTCTCCC
DNA 2: TGGTGGCTACGACGGGATT
B23: ACAAUAG (DNA:RNA)
RNA: B1 RNA with C25A, G26C, U30A, C31G
DNA 1: CAATCTGAATTCCGGTCTCCC
DNA 2: TGGTGGCTACGACGGGATT
B24: AUGAAUA (DNA:RNA)
RNA: B1 RNA with C25A, G26U, A27G, U29A, C31A
DNA 1: CAATCTGAATTCCGGTCTCCC
DNA 2: TGGTGGCTACGACGGGATT
B25: CGAGAUU (DNA:RNA)
RNA: B1 RNA with A28G, U29A, C31U
DNA 1: CAATCTGAATTCCGGTCTCCC
DNA 2: TGGTGGCTACGACGGGATT
B26: CAUUACC (DNA:RNA)
RNA: B1 RNA with G26A, A27U, A28U, U29A, U30C
DNA 1: CAATCTGAATTCCGGTCTCCC
DNA 2: TGGTGGCTACGACGGGATT
B27: CCGGCUC (DNA:RNA)
RNA: B1 RNA with G26C, A27G, A28G, U29C
DNA 1: CAATCTGAATTCCGGTCTCCC
DNA 2: TGGTGGCTACGACGGGATT
B28: GUUAAAU (DNA:RNA)
RNA: B1 RNA with C25G, G26U, A27U, U29A, U30A, C31U
DNA 1: CAATCTGAATTCCGGTCTCCC
DNA 2: TGGTGGCTACGACGGGATT
B29: CCGCCCC (DNA:RNA)
RNA: B3 RNA with G25C, G30C, G31C
DNA 1: CAATCTGAATTCCGGTCTCCC
DNA 2: TGGTGGCTACGACGGGATT
B30: GAAAGCU (DNA:RNA)
RNA: B1 RNA with C25G, G26A, U29G, U30C, C31U
DNA 1: CAATCTGAATTCCGGTCTCCC
DNA 2: TGGTGGCTACGACGGGATT
B31: ACACGCU (DNA:RNA)
RNA: B3 RNA with G25A, G27A, C29G, G30C, G31U
DNA 1: CAATCTGAATTCCGGTCTCCC
DNA 2: TGGTGGCTACGACGGGATT

The experiment concerns the target T1, RBFOX1 RRM. Nature of the experiment: EMSA; HiTS-Eq, 1 nM pool, 10 min; buffer printed only for the single-RNA assays: 10 mM Tris pH 7.5, 150 mM NaCl, 3.4 mM EDTA, 0.001% NP-40, 30 C. The conditions noted are these: tags: His6 N-terminal (pET28a); label: 5' 32P. The gist of the method:
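Purified RbFox RRM (wild type or mutant) was equilibrated for 10 min in 50 µL with 1 nM of a 5′-radiolabelled pool of RNA with 7 randomized nucleotides, its flanks annealed to DNA oligonucleotides, across increasing protein concentrations. Free RNA was separated by 8% native PAGE, excised, reverse-transcribed, PCR-barcoded and sequenced on an Illumina HiSeq 2500. Relative association constants came from read-count changes of each variant against the control reaction, normalised to the cognate motif.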
(In EMSA bound probe runs differently from free probe, usually more slowly.)
As for B1, the binding signal was 0.00606 KA relative to UGCAUGU. With B2 the figure was 0.00841 KA relative to UGCAUGU; with B3, 0.00988 KA relative to UGCAUGU; with B4, 0.0164 KA relative to UGCAUGU.

B5: the binding signal was 0.00285 KA relative to UGCAUGU. The result for B6 reads 0.0138 KA relative to UGCAUGU; that for B7, 0.0167 KA relative to UGCAUGU; that for B8, 0.0114 KA relative to UGCAUGU. Regarding B9, the binding signal was 0.0228 KA relative to UGCAUGU. The result for B10 reads 0.0175 KA relative to UGCAUGU.

Regarding B11, the binding signal is 0.000218 KA relative to UGCAUGU.

As to B12, the binding signal is 0.000323 KA relative to UGCAUGU. For the molecule B13, the binding signal is 0.0129 KA relative to UGCAUGU. The result for B14 reads 0.00586 KA relative to UGCAUGU. The result for B15 reads 0.00647 KA relative to UGCAUGU; that for B16, 0.0198 KA relative to UGCAUGU; that for B17, 0.0132 KA relative to UGCAUGU. The result for B18 reads 0.00411 KA relative to UGCAUGU; that for B19, 0.0214 KA relative to UGCAUGU. Take B20: the binding signal was 0.007 KA relative to UGCAUGU. In the case of B21, the binding signal is 0.0135 KA relative to UGCAUGU. With B22 the figure was 0.00507 KA relative to UGCAUGU; with B23, 0.00314 KA relative to UGCAUGU; with B24, 0.0031 KA relative to UGCAUGU.

Turning to B25, the binding signal was 0.0112 KA relative to UGCAUGU. With B26 the figure was 0.00161 KA relative to UGCAUGU. Turning to B27, the binding signal is 0.0183 KA relative to UGCAUGU. Take B28: the binding signal is 0.00766 KA relative to UGCAUGU.

On to B29, for which the binding signal is 0.0158 KA relative to UGCAUGU. With B30 the figure was 0.00823 KA relative to UGCAUGU; with B31, 0.0024 KA relative to UGCAUGU.
